# Source: paper PMC4336329 (PLoS ONE, 2015)
# About 2,200 (0.71%) of roughly 310,000 compounds showed an effect of 50% or more. The effect is printed as a negative number. This is one part of the list.
# Molecular target: human ether-à-go-go-related gene (hERG) potassium channel (human, UniProt Q12809)
# Assay: primary screen, population patch clamp on CHO cells stably expressing hERG
# Chain of human ether-à-go-go-related gene (hERG) potassium channel (Q12809 whole entry, looked up): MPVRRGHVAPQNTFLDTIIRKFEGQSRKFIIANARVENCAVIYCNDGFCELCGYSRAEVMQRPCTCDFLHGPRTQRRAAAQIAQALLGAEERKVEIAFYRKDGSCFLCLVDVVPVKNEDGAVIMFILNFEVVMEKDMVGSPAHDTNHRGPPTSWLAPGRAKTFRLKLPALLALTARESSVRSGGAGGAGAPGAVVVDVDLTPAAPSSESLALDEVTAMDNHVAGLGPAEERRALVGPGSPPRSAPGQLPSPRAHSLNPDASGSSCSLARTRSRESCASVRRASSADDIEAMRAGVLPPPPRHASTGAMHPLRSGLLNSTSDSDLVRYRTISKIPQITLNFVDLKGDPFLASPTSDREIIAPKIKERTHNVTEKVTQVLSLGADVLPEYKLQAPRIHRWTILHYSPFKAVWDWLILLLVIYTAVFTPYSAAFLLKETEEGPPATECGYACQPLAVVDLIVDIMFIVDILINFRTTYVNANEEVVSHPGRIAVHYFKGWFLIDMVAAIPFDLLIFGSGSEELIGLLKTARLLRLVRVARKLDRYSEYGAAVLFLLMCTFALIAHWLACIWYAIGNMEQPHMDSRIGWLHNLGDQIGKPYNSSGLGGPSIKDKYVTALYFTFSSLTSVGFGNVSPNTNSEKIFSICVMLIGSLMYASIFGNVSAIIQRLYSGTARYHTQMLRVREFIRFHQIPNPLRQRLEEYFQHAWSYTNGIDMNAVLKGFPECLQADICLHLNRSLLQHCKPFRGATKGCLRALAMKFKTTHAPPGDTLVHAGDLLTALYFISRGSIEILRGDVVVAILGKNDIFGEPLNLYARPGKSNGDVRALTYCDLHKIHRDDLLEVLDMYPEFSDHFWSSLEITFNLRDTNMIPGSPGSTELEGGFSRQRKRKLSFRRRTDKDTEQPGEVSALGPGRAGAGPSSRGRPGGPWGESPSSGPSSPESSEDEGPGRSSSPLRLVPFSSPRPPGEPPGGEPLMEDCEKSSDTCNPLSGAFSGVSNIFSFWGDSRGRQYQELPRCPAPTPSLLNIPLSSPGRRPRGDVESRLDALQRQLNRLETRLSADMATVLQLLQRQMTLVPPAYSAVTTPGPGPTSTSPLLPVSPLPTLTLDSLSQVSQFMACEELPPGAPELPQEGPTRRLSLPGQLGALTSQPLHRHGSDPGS
row,Compound,"hERG current change (%, negative = inhibition) at 1uM [%]"
1,Cc1cc(NC(=O)Nc2cccc([N+](=O)[O-])c2)no1,3.73
2,Cc1ccc(-n2c(CNCc3ccc(F)cc3)nc3ccccc3c2=O)cc1,7.32
3,O=C(O)C(=O)O.O=C(c1cccc(F)c1)N1CCN(Cc2cccc(Br)c2)CC1,-7.13
4,COc1ccc(CNC(=O)c2c(-c3c(F)cccc3Cl)noc2C)cc1,16.4
5,COC(=O)c1ccc(NC(=O)CN2CCOCC2)cc1,19.1
6,Cc1cc(C)c(S(=O)(=O)c2ccccc2F)c(=O)[nH]1,22.2
7,CSc1ncccc1C(=O)OCc1ccccc1Cl,17.5
8,COCCOC(=O)c1c(C)oc2cc(Br)c(OCC(N)=O)cc12,12.6
9,CCOc1ccc2nc(NC(=O)CSc3nc4c(c(=O)n(C)c(=O)n4C)n3C(C)C)sc2c1,2.42
10,Cc1ccc(-c2csc3ncn(CC(=O)N4CCOCC4)c(=O)c23)cc1C,3.01
11,COC(=O)C1=C(C)N(C)C(=O)NC1c1cc(Cl)c(O)c(OC)c1 (stereo not shown),2.68
12,O=C(OCCCN1CCCC1)C1(c2ccccc2)CCCC1,0.859
13,CCN(CC)C(=O)CSc1nc2ncccc2[nH]1,-16.3
14,CCCS/C(N)=N/N=C/c1cc(C)ccc1O,14.3
15,Cn1nnnc1Sc1ncnc2scc(-c3cccs3)c12,17.5
16,NC(=O)c1ccc(OCC(F)(F)C(F)(F)C(F)(F)C(F)(F)C(F)(F)C(F)F)cc1,11
17,CC(=O)c1ccc(NC(=S)NCc2ccco2)cc1,14.7
18,CC(=O)Nc1ccc(OCC(=O)NCc2ccccc2)cc1,12.9
19,Cc1nc(N2CCOCC2)[nH]c(=O)c1C(O)C(Cl)(Cl)Cl (stereo not shown),11.6
20,CCOc1cc(N2CCOCC2)c(OCC)cc1NC(=O)CN1CCC(Cc2ccccc2)CC1,5.3
21,O=C1C2C3CCC(C3)C2C(=O)N1c1ccc(OS(=O)(=O)c2ccccc2)cc1 (stereo not shown),5.76
22,Cc1ccc(-c2csc(N/N=C/c3ccco3)n2)cc1,-2.36
23,CC(C)(C)c1csc(NC(=O)Cc2ccc(S(=O)(=O)N3CCOCC3)s2)n1,6.76

row,Compound,"hERG current change (%, negative = inhibition) at 1uM [%]"
1,COc1ccc(C(=O)NNC(=O)c2cccc(F)c2)cc1,0.0778
2,O=S(=O)(NCc1cccnc1)c1ccc(Cl)nc1,10.4
3,Cc1cc(=O)n2nc(N3CCC(C(=O)NCC(C)c4ccccc4)CC3)sc2n1 (stereo not shown),11.7
4,O=C1CC(c2ccco2)Sc2nc3ccccc3n21 (stereo not shown),8.33
5,COc1cc(C(=O)NCc2ccc(-c3nc4ccccc4s3)cc2)cc(OC)c1OC,13.7
6,COc1ccc2c(c1OC)C(=O)OC2C1c2c(cc3c(c2OC)OCO3)CCN1C.Cl (stereo not shown),9.06
7,CC/C(O)=C1\C(=O)CC(c2ccccc2)CC1=NCCC(=O)O (stereo not shown),16.4
8,COCCN(C(C)=O)c1nnc(-c2cnccn2)s1,7.47
9,CCN(CC(=O)Nc1cc(Cl)ccc1C)C(=O)COc1cccc2c1OC(C)(C)C2,0.28
10,Cc1cccc(C)c1OCCCCN1CCCCC1.O=C(O)C(=O)O,8.28
11,O=C(CC(=O)N/N=C/c1cccs1)NCc1ccccc1,10.4
12,CCOC(=O)c1cc[n+](CC(=O)c2ccc(F)cc2)cc1.[Br-],3.52
13,COC(=O)c1ccc(NC(=O)COc2cccc(-n3cnnn3)c2)cc1,17.7
14,Nc1nc(SCc2ccccc2Cl)ns1,8.18
15,CCC(=O)NCCCCCCNC(=O)CC,9.57
16,O=S(=O)(Nc1nc2ccccc2nc1Cl)c1ccccc1C(F)(F)F,11.3
17,C=CCSc1nnc2c(n1)OC(c1cccnc1)Nc1ccccc1-2 (stereo not shown),2.84
18,CCOc1ccc(C(=O)NC2CCN(S(=O)(=O)c3ccccc3)CC2)cc1,11.4
19,Cn1c(SCC(=O)NC2CCCC2)nnc1-c1ccco1,12.9
20,Nc1ccc(N2CCOCC2)c2nonc12,23.6
21,CC1CCN(c2nnc(-c3cccs3)c3ccccc23)CC1,-0.472
22,O=C(c1cccc2ccccc12)N1CCN(c2ccc([N+](=O)[O-])c(N3CCOCC3)c2)CC1,0.0958
23,CCCCNC(=O)c1ccc(SCC(=O)N(CC)CC)c([N+](=O)[O-])c1,5.49
